In paper PMC4336329 (PLoS ONE, 2015):
In all, about 310,000 compounds went through this assay and about 14,000 (4.5%) showed an effect of 50% or more. Effects have a minus sign here. This is one part of the list.

molecular target: human ether-à-go-go-related gene (hERG) potassium channel (human, UniProt Q12809); test: primary screen, population patch clamp on CHO cells stably expressing hERG
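Note: peak tail current of the secondary pulse compared with the same well before compound.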

human ether-à-go-go-related gene (hERG) potassium channel, sequence (Q12809 whole entry, looked up): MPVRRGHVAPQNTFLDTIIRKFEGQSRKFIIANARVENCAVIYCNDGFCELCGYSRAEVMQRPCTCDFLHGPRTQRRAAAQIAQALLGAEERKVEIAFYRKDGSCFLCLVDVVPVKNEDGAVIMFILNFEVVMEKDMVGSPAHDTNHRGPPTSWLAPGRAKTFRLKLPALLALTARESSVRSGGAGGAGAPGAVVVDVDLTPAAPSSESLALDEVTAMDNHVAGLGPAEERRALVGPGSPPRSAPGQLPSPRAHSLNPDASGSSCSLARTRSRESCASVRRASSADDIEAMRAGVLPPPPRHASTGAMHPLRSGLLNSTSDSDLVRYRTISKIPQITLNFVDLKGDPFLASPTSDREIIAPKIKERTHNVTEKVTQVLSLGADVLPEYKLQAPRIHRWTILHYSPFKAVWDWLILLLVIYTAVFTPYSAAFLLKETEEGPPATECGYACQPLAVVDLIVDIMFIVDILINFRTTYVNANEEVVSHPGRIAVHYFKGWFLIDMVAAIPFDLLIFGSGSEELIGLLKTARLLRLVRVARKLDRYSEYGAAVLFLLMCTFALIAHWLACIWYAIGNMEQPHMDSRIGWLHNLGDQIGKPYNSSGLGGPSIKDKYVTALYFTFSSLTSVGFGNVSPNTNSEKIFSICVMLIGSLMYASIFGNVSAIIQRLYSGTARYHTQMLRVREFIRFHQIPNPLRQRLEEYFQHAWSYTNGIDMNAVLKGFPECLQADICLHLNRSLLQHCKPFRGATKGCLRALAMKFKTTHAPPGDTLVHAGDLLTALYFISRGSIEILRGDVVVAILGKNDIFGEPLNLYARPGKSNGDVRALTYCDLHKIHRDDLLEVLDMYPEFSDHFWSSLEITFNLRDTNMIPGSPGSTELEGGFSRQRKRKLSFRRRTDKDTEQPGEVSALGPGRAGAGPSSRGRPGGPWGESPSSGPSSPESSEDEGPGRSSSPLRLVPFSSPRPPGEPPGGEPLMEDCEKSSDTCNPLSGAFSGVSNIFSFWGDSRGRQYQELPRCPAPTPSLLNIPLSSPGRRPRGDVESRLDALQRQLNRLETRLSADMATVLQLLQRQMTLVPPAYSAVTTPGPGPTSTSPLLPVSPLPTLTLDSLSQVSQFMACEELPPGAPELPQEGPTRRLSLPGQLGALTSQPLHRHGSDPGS

Structure (SMILES)	hERG current change (%, negative = inhibition) at 10uM
COC(=O)C1=C(c2ccc3ccccc3c2)C[C@@H]2CC[C@H]1N2C(=O)NCc1ccco1	-8.46%
Cc1ccc(CSCC(=O)Nc2ccccc2F)cc1	1.59%
CCN(CC(=O)Nc1cccc(S(=O)(=O)N2CCCC2)c1)CC(=O)Nc1ccccc1OC	-4.68%
O=C(CN1C(=O)NC2(CCCc3ccccc32)C1=O)c1ccc(F)cc1 (stereo not drawn)	-17%
COc1cccc(CNS(=O)(=O)c2cc(CN3C(=O)c4cccnc4C3=O)ccc2OC)c1	4.2%
O=C(CSCc1ccccc1Cl)N/N=C/c1ccco1	17.2%
COCCCNC(=O)Cn1c(=O)n(Cc2ccc(C(=O)NCCc3ccc(OC)c(OC)c3)cc2)c(=O)c2ccccc21	0.0428%
Cc1cccc(-n2nnnc2SCn2nnc3ccccc3c2=O)c1	-17.8%
O=C(Nc1ccccc1C(=O)NCc1ccco1)c1ccco1	-25%
CCN(CC)S(=O)(=O)c1ccc(-c2nnc(SCC(=O)N3CCOCC3)o2)cc1	-5%
O=C(COC(=O)/C=C/c1ccc(C(F)(F)F)cc1)NC1CCCC1	15.7%
N=C1C(c2nc3ccccc3[nH]2)=C(O)CN1c1ccc(CC(=O)O)cc1	13.3%
Cn1c(=O)oc2cc(S(=O)(=O)N3CCCC(C(=O)NCc4ccc5c(c4)OCO5)C3)ccc21 (stereo not drawn)	-5.35%
COc1ccc(-c2nc3ccccc3n2OCC(=O)O)cc1	18.5%
C=CCN1C(=O)CSc2ccc(C(=O)NC3CCCCC3)cc21	2.93%
N=C1/C(=C/c2cccs2)C(=O)N=C2SN=C(SCc3ccccc3)N12	6.75%
COc1ccc2nc(Nc3nc(-c4ccncc4)cs3)sc2c1	17.9%
Cc1ccc(C(=O)N/N=C\c2sccc2C)cn1	13.2%
N#Cc1cn(-c2ccccc2)nc1-c1cc2ccccc2oc1=O	8.72%
O=C(COC(=O)c1cncc(Br)c1)NCCC1=CCCCC1	13.3%
CCOC(=O)c1ccn(-c2nc(-c3ccco3)cc(C(F)(F)F)n2)n1	-14.5%
COc1ccc(CCC(=O)N2CCN(S(=O)(=O)c3cccc(C(F)(F)F)c3)CC2)cc1OC	-29.6%

Structure (SMILES)	hERG current change (%, negative = inhibition) at 10uM
O=C(c1cccs1)N(Cc1cccc(F)c1)C1CCS(=O)(=O)C1 (stereo not drawn)	-14.9%
CNC(=O)Cc1nc2ccccc2n1CC(=O)Nc1cc(C)cc(C)c1	27.8%
O=C(O)CSc1nc2ccccc2n1C1CCCCC1	15.8%
CCOC(=O)c1c(C)[n+](-c2ccc(C)cc2)c(CC)c2cc(OC)c(OC)cc12.[Cl-]	-39.7%
Cc1cc(C(=O)CN2C(=O)NC3(CCCc4ccccc43)C2=O)c(C)n1Cc1cccs1 (stereo not drawn)	-1.7%
COc1ccc(N2CC(C(=O)Nc3nnc(Cc4ccccc4)s3)CC2=O)cc1 (stereo not drawn)	3.46%
Cc1ccc(NC(=S)NN2CCN(C)CC2)cc1	-6.61%
CC1Cc2ccccc2N1C(=O)COC(=O)c1cccc(Br)c1 (stereo not drawn)	2.48%
CC(C)(C)c1ccccc1OCC(=O)NCCC(=O)O	-7.3%
C=CCn1c(SCC(=O)c2ccc(Cl)s2)nc2ccccc2c1=O	8.5%
CN(C)S(=O)(=O)c1ccc(C(=O)Nc2nc(-c3ccccc3)c(C(=O)c3ccccc3)s2)cc1	7.84%
O=C(CN(CC1CCCO1)C(=O)CNS(=O)(=O)c1ccc(Cl)cc1)NCC1CCCO1 (stereo not drawn)	11.3%
CC(=O)N1CCN(Cc2nc3cc(NC(=O)c4ccc(F)cc4)ccc3n2C)CC1	-8.9%
CN(C)CCCC1(O)c2ccccc2CCc2ccccc21	7.52%
COc1ccc(CC(=O)Nc2ccc(-c3noc(COc4ccccc4C)n3)cc2)cc1	2.1%
COc1ccccc1NC(=O)COC(=O)c1cnc(C)cn1	15.7%
CC(=O)c1cccc(S(=O)(=O)NCC(c2ccco2)N2CCCCC2)c1 (stereo not drawn)	-24.1%
C(=N\Nc1nc(-c2cccnc2)nc2ccccc12)/c1ccccc1	-24.7%
COc1ccc(CCNC(=O)C(=O)N2CCCCC2)cc1OC	13.3%
CCn1c(SCC(=O)Nc2ccc(-c3nc4ccc(C)cc4s3)cc2)nnc1-c1ccccc1	4.57%
Cc1cccc(CNCc2ccccc2)c1.Cl	-7.31%
C=CCN1C(=O)CN=C1Nc1ccc(F)cc1	9.44%

Structure (SMILES)	hERG current change (%, negative = inhibition) at 10uM
CC1=NN(C(=O)COc2ccccc2)C(O)(c2cccnc2)C1 (stereo not drawn)	17.8%
CCCn1c(N)c(C(=O)CN2CCN(S(=O)(=O)c3cccs3)CC2)c(=O)[nH]c1=O	-22.9%
CC(C)=NNc1nc(-c2ccccc2)c(C)s1	11.9%
CC1CCN(C(=O)c2[nH]cnc2C(=O)NCC(=O)OC(C)(C)C)CC1	6.94%
Cc1ccc(C)c(Cn2c3ccccc3c3cnn(CC(=O)NCCCN4CCCCC4)c(=O)c32)c1	-71.9%
CCOc1cc(C(=O)OC(C)C(=O)Nc2ncc(Cl)cc2Cl)ccc1OCC(=O)N1CCOCC1 (stereo not drawn)	2.21%
FCCN(CCF)c1cccc(Cl)c1	13%
O=C(CSc1ccc(-c2cccnc2)nn1)Nc1ccc(Br)cc1	-35.9%
Cn1cc(Br)c(C(=O)N2CCc3ccccc32)n1	-7.56%
Cc1cc(C)cc(-c2nnc(SCC(=O)NCc3cccs3)o2)c1	4.21%
CC(C)(C)c1ccc(OCCC(=O)NNC(=O)c2ccncc2)cc1	-6.47%
Cc1nnc(NC(=O)c2ccc(-c3ccc(Cl)cc3)o2)s1	2.72%
CC1CCCC(C)N1C(=O)CSc1nnc(-c2c[nH]c3ccccc23)o1 (stereo not drawn)	-4.87%
CCSc1nnc(NC(=O)c2cccc(S(=O)(=O)N(C)c3ccccc3)c2)s1	3.54%
Cc1ccc(CN2CCN(Cc3ccc(O)cc3)CC2CCO)o1 (stereo not drawn)	-7.85%
Cc1ccc(CCNC(=O)CCS(=O)(=O)c2ccc3c(c2)oc(=O)n3C)cc1	13.8%
COc1ccc(N2CC(C(=O)Nc3nc4ccccc4s3)CC2=O)cc1 (stereo not drawn)	-48.9%
COc1ccc(Cl)cc1NC(=O)C/C(C)=N/NC(=O)CCc1ccccc1	-14%
CCC(OC(=O)CN1C(=O)C(=O)c2ccccc21)C(=O)Nc1ccc(S(N)(=O)=O)cc1 (stereo not drawn)	11.3%
COc1cc(C(=O)OCC(=O)NC2CCCCC2)cc2c1OCCO2	17.3%
O=C1CCC(C(=O)N2CCOCC2)CN1Cc1ccc(Cl)cc1 (stereo not drawn)	2.62%
Cc1nn(-c2ccccc2)c(C)c1/C=N/NC(=O)CSc1nc2ccccc2c(=O)n1-c1ccc(Br)cc1	3.58%

Structure (SMILES)	hERG current change (%, negative = inhibition) at 10uM
COc1ccc(C2CC(c3ccccc3)=NN2C(=O)COC(=O)c2cc(S(=O)(=O)N3CCOCC3)ccc2F)cc1 (stereo not drawn)	-5.62%
O=C1NCCN2CCCC12 (stereo not drawn)	6.78%
O=[N+]([O-])c1ccccc1CNC1CCCc2ccccc21 (stereo not drawn)	-5.95%
COc1ccc(/C=N/NC(=O)CCn2nc(C)cc2C)cc1O	17.9%
O=S(=O)(c1ccccc1)c1nc(-c2ccccc2)oc1N1CCCCC1	-12.8%
COc1ccc2[nH]c(C(=O)O)c(CCNC(C)=O)c2c1	9.27%
Cc1cc(C(=O)NC(=S)Nc2cccc(NC(=O)C(C)C)c2)ccc1[N+](=O)[O-]	3.95%
O=C1CC(c2ccccc2)CC(O)=C1C=Nc1ccc(Cl)cc1 (stereo not drawn)	9.76%
Cc1cc(C)cc(-n2nnnc2SCC(=O)N2CCOCC2)c1	-5.2%
N#C/C(=N\Nc1ccc(F)cc1)C(=N)N1CCCCC1	-21.6%
O=C(O)COc1c(Cl)cc(/C=C2/NC(=O)NC2=O)cc1Br	8.42%
CCn1cc(S(=O)(=O)N2CCN(Cc3ccc(F)cc3)CC2)cn1	-7.27%
Cc1ccnc(N=Cc2nc(-c3ccccc3Br)oc2O)c1	-2.4%
CCOC(=O)c1c(C)n(-c2ccc(C)cc2)c2ccc(OCC(O)CNCC3CCCO3)cc12.O=C(O)C(=O)O (stereo not drawn)	-47.7%
O=C(COC(=O)c1ccccc1Br)NCCc1ccc(F)cc1	-9.01%
C/C(=N/NC(=O)c1ccoc1C)c1ccc(NC(=O)C2CCCC2)cc1	10.8%
CC(C)(C)C(=O)O/N=C(\N)COc1cccc(Cl)c1	10.8%
COc1ccccc1OCC(=O)NCCNC(=O)COc1ccccc1OC	3.06%
N#CCC(CNc1ncc(C(F)(F)F)cc1Cl)OC(=O)c1c(F)cccc1F (stereo not drawn)	-1.98%
Cc1cccc(CNc2ccc(C(CC(N)=O)NC(=O)c3ccccc3)cc2[N+](=O)[O-])c1 (stereo not drawn)	-2.08%
Cc1ccc(S(=O)(=O)NC(CC(C)C)C(=O)N2CCN(C/C=C/c3ccccc3)CC2)cc1 (stereo not drawn)	-21.3%
